Source: PubChem BioAssay AID504332 (National Center for Advancing Translational Sciences (NCATS), 2011)
Out of some 350,000 compounds screened, about 31,000 (8.9%) were called active. Inconclusive means that the source gave no clear call. Such entries were picked first, then a sample of the others. Calls follow the shape of the dose curve; as a rule, active = well fitted inhibition curve with a large enough effect; inconclusive = small, poorly fitted or top-dose-only effect; inactive = no such curve, though single readings can be large or run the other way. Potencies of inconclusive entries are doubtful fits and often do not repeat.

target: Histone-lysine N-methyltransferase EHMT2 (Homo sapiens) (UniProt Q96KQ7); assay: qHTS Assay for Inhibitors of Histone Lysine Methyltransferase G9a; conditions: G9a H3K9 monomethylation, AlphaScreen, 2 h; activity, negative = inhibition: at 59 µM (top of the series) unless noted; also: nearly all actives have a fitted effect of over 75% in size
In short: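 G9a (20 nM) preincubated 15 min RT with compounds, then 500 nM biotinylated H3K9 peptide and 20 uM SAM added; 2 h RT reaction. Monomethyl-H3K9 product detected by AlphaScreen with anti-H3K9me1 antibody, streptavidin donor and anti-rabbit IgG acceptor beads.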
% is scaled to controls: 0 for no effect and ±100 for the full control effect; potency is read from the fitted curve at half-maximal effect; tags tell the direction and shape of the fitted curve.

UniProt Q96KQ7, sequence (Q96KQ7 whole entry, looked up): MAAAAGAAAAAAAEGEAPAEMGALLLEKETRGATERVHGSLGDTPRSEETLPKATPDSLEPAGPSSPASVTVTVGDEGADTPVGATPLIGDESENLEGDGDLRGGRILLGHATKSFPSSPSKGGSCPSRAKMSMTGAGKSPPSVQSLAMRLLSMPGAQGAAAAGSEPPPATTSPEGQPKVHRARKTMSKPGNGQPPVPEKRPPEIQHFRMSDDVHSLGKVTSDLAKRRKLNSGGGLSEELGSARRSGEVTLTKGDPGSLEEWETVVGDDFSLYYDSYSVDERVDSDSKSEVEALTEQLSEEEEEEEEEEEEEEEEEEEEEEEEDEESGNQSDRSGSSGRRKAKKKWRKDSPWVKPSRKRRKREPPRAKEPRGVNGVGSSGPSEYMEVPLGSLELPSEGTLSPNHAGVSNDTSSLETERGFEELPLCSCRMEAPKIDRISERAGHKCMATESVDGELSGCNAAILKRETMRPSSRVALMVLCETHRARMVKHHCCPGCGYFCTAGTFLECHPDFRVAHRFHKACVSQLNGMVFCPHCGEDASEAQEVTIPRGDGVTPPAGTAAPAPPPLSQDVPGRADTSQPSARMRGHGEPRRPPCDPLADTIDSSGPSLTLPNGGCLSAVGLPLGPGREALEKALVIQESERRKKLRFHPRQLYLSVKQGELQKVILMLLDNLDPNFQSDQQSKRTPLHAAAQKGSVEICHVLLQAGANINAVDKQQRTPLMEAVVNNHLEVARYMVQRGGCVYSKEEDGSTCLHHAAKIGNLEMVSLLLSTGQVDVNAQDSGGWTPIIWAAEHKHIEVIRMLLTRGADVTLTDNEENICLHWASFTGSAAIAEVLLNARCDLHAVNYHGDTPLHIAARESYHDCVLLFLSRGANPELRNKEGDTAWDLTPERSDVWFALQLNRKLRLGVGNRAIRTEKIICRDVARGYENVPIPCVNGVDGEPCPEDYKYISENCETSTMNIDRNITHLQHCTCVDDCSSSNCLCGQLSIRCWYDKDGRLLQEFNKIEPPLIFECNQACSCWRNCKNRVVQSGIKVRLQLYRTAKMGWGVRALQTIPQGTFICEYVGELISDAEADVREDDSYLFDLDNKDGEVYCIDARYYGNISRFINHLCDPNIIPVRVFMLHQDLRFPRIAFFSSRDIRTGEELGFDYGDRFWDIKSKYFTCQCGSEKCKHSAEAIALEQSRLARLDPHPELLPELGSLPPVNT

With `O=C1OCC2=C1C(c1ccccc1)CC(=O)N2c1ccccc1` (stereo not drawn) as the molecule, how does the “activity, negative = inhibition” value read?
The value was inactive: 47.4%.

For `CCn1c(C)c(C)c2cc(C(=O)NCCCN3CCCCCC3)ccc21`, which Potency is on record?
Its Potency is inconclusive: 50.1 µM [inhibitor, single point].

For `Cc1nn(C)c(C(=O)Nc2ccc(Cl)c([N+](=O)[O-])c2)c1Cl`, which Potency is on record?
The Potency was active: 15.8 µM.

Which Potency does the source give for `O=C(CCSCc1ccccc1)Nc1ccc2c(c1)OCCO2` here?
The Potency was inconclusive: 56.2 µM [inhibitor, partial curve, poor fit].

How did the “activity, negative = inhibition” value turn out when `Cc1ccc2nc(COc3ccccc3NC(=O)COc3ccc(F)cc3)cc(=O)n2c1` was run?
Its value is inactive: -0.263%.

`C=CC[N@@+]12CC[C@]34c5ccccc5N5/C=C6\C7N(/C=C(\C53)[C@@H](C[C@@H]41)/C(=C/CO)C2)c1ccccc1[C@@]71CC[N@@+]2(CC=C)C/C(=C\CO)[C@@H]6C[C@@H]12` (stereo partly drawn) was tested. Which Potency did it give?
Its Potency is inconclusive: 10 µM [inhibitor, partial curve].

For `COc1cccc(-n2c(Cc3cc(=O)[nH]c(=O)[nH]3)nnc2SCC(=O)N2CCC(C)CC2)c1`, which Potency is on record?
Its Potency is inconclusive: 44.7 µM [inhibitor, partial curve].

With `Cc1ccc(-c2nc(S(=O)(=O)c3ccccc3)c(N3CCN(c4ccccc4)CC3)o2)cc1` as the molecule, how does the “activity, negative = inhibition” value read?
Its value is inactive: -3.9%.

`COc1ccccc1NC(=S)N1CCc2cc(OC)c(OC)cc2C1` was tested. Which Potency did it give?
Its Potency is inconclusive: 39.8 µM [inhibitor, single point].

How did the Potency turn out when `CC(C)Sc1ccccc1C(=O)Nc1ccc2c(c1)n(C)c(=O)n2C` was run?
The Potency was active: 6.31 µM.

Which “activity, negative = inhibition” value does the source give for `CCOC(=O)Cn1cc(/C=N/NC(=O)CC#N)c2ccccc21` here?
Its value is inactive: 8.96% [at 102 µM].

Which activity, negative = inhibition does the source give for `Cc1ccc(N=Cc2c(O)c3ccccc3n(C)c2=O)cc1` here?
Its activity, negative = inhibition is inactive: 32.4% [at 0.501 µM].

With `CC(NCC(=O)Nc1cc(Cl)cc(Cl)c1)c1ccccc1` (stereo not drawn) as the molecule, how does the “activity, negative = inhibition” value read?
The value was inactive: -0.468% [at 102 µM].

For `CCOC(=O)c1c(O)c(Cl)c(C)[nH]c1=O`, which “activity, negative = inhibition” value is on record?
The value was inactive: -9.66% [at 102 µM].

With `O=C(Nc1ccccc1C(=O)OCc1cc(=O)n2c3c(sc2n1)CCCC3)c1ccc(F)cc1` as the molecule, how does the “activity, negative = inhibition” value read?
The value was inactive: 15%.

For `O=C(CCn1nnnc1CN1CCOCC1)N1CCC(c2ccccc2F)C1` (stereo not drawn), which “activity, negative = inhibition” value is on record?
The value was inactive: 9.98% [at 102 µM].

How did the activity, negative = inhibition turn out when `CC1(C)O[C@@H]2[C@H](O1)[C@@H](COS(=O)(=O)O)O[C@H]2n1c(=S)[nH]c2c(=O)[nH]c(N)nc21` was run?
Its activity, negative = inhibition is inactive: 13% [at 2.33 µM].

How did the Potency turn out when `CC(C)C(NC(=O)/C(=C\c1ccco1)NC(=O)c1ccco1)C(=O)O` (stereo not drawn) was run?
The Potency was active: 39.8 µM.

Which Potency does the source give for `CSc1ccc(/C=C/C(=O)NC(=O)c2ccccc2O)cc1` here?
Its Potency is inconclusive: 8.91 µM [inhibitor, partial curve, poor fit].

How did the activity, negative = inhibition turn out when `O=C(O)c1ccc2c(c1)C(=O)N([C@H](Cc1ccc3ccccc3c1)C(=O)O)C2=O` was run?
Its activity, negative = inhibition is inactive: 9.83% [at 12.7 µM].

Which “activity, negative = inhibition” value does the source give for `COC(=O)c1ccc(NC(=O)C(OC)c2ccccc2)cc1` (stereo not drawn) here?
Its value is inactive: 15.1%.

How did the Potency turn out when `Cc1onc(-c2c(F)cccc2Cl)c1C(=O)Nc1ccccc1N1CCOCC1` was run?
Its Potency is inconclusive: 56.2 µM [inhibitor, partial curve].

For `O=c1cc(-c2cccc(Cl)c2)oc2cccc(O)c12`, which activity, negative = inhibition is on record?
The activity, negative = inhibition was inconclusive: -67.4% [inhibitor].

How did the Potency turn out when `C/C(Cl)=C\Cn1c(O)c(N=NC(N)=S)c2ccccc21` was run?
The Potency was inconclusive: 17.8 µM [inhibitor, partial curve, poor fit].

For `Cc1ccc(S(=O)(=O)N2CCN(c3ncnc4sccc34)CC2)cc1`, which “activity, negative = inhibition” value is on record?
Its value is inactive: -2.34% [at 102 µM].

For `COc1ccc(-c2oc3ncn4nc(COc5cccc(C)c5C)nc4c3c2-c2ccc(OC)cc2)cc1`, which “activity, negative = inhibition” value is on record?
Its value is inactive: -17.3%.

`Cc1c(C(=O)NCc2cccnc2)oc2ccc(S(=O)(=O)N3CCCCC3)cc12` was tested. Which “activity, negative = inhibition” value did it give?
The value was inactive: -8.65%.

How did the Potency turn out when `NS(=O)(=O)c1ccc2nc(NC(=O)Nc3ccc(F)cc3)sc2c1` was run?
The Potency was active: 50.1 µM.

With `CSCC[C@@H](Nc1nc(-c2ccccc2)nc2c1oc1ccccc12)C(=O)O` as the molecule, how does the activity, negative = inhibition read?
The activity, negative = inhibition was inactive: 7.71% [at 12.7 µM].

`C=CCNc1nc(N)c(C(=C(C#N)C#N)c2ccccc2)s1` was tested. Which Potency did it give?
Its Potency is inconclusive: 44.7 µM [inhibitor, partial curve, poor fit].

How did the Potency turn out when `CCOC(=S)SCC(=O)N1CCc2cc(OC)c(OC)cc2C1C1C(=O)CC(C)(C)CC1=O` (stereo not drawn) was run?
Its Potency is active: 44.7 µM.

`CCOC(=O)c1c(-c2ccc(C)cc2)csc1NC(=O)c1cc(=O)c2cc(C)ccc2o1` was tested. Which Potency did it give?
The Potency was inconclusive: 3.98 µM [inhibitor, partial curve, poor fit].

With `O=C(Nc1ccccc1)NC1CS(=O)(=O)CC1O` (stereo not drawn) as the molecule, how does the Potency read?
The Potency was inconclusive: 50.1 µM [inhibitor, partial curve, poor fit].

Which Potency does the source give for `C=CCn1cccc(/C=C/C(=O)c2ccc(C(C)(C)C)cc2)c1=S` here?
The Potency was inconclusive: 31.6 µM [inhibitor, single point].

With `CCc1nnc(NC(=O)CN2C(=O)NC3(CCCC3)C2=O)s1` as the molecule, how does the Potency read?
The Potency was inconclusive: 39.8 µM [inhibitor, single point].

For `O=C(O)c1cc(S(=O)(=O)N(Cc2ccccc2)c2ccccc2)ccc1Cl`, which “activity, negative = inhibition” value is on record?
The value was inactive: -15% [at 102 µM].

For `CN(C)c1cccc(C(=O)N2CCC(c3c[nH]c4ccccc34)(c3c[nH]c4ccccc34)CC2)c1`, which Potency is on record?
Its Potency is inconclusive: 3.16 µM [inhibitor, partial curve, poor fit].

How did the Potency turn out when `Cc1csc(NC(=O)c2ccc[nH]c2=O)n1` was run?
The Potency was inconclusive: 89.1 µM [inhibitor, single point].

How did the Potency turn out when `CCCCOc1ccc(C(=O)N/C(=C/C=C/c2ccccc2)C(=O)O)cc1` was run?
The Potency was active: 50.1 µM.

With `COc1nccnc1NS(=O)(=O)c1ccc(NC(=S)NC(=O)/C=C/c2ccccc2)cc1` as the molecule, how does the Potency read?
Its Potency is inconclusive: 3.98 µM [inhibitor, full curve, poor fit].

With `CCC(C(=O)NCc1cc(OC)ccc1OC)n1nc(C)c2sc3ccccc3c2c1=O` (stereo not drawn) as the molecule, how does the “activity, negative = inhibition” value read?
Its value is inactive: 4.25%.

For `O=C1C(C2=NC(C(=O)O)C3C(=O)N(c4ccccc4)C(=O)C23)=C(O)c2ccccc21` (stereo not drawn), which Potency is on record?
Its Potency is inconclusive: 56.2 µM [inhibitor, partial curve, poor fit].

`COc1ccc(C2CC(=O)C(C=NCCN3CCNCC3)=C(O)C2)cc1OC` (stereo not drawn) was tested. Which “activity, negative = inhibition” value did it give?
Its value is inactive: 17.2%.

`N=c1n(CC(=O)c2ccc([N+](=O)[O-])cc2)c2ccccc2n1Cc1ccccc1Cl` was tested. Which Potency did it give?
Its Potency is inconclusive: 7.08 µM [inhibitor, single point].

For `CC(=O)Nc1cccc(NC(=O)CSc2ccc(-c3ccco3)nn2)c1`, which Potency is on record?
Its Potency is active: 39.8 µM.

How did the Potency turn out when `CCN1CCN(c2nc3ccccc3n3cnnc23)CC1` was run?
The Potency was inconclusive: 44.7 µM [inhibitor, partial curve].

For `Cc1ccc(-c2nc(S(=O)(=O)c3ccc(F)cc3)c(SCC(=O)NCC3CCCO3)o2)cc1` (stereo not drawn), which Potency is on record?
The Potency was active: 14.1 µM.

Which Potency does the source give for `O=C(NNC(=O)c1ccc(NC(=O)c2ccccc2)cc1)c1ccc(F)cc1` here?
Its Potency is inconclusive: 89.1 µM [inhibitor, single point].

For `Cc1ncc(CN2CCC(CO)(CCc3ccccc3)CC2)s1`, which Potency is on record?
Its Potency is inconclusive: 39.8 µM [inhibitor, partial curve, poor fit].

`Cc1[nH]c2ccccc2c1C(=O)CSc1nccc(=O)[nH]1` was tested. Which “activity, negative = inhibition” value did it give?
The value was inactive: 12.7%.

With `O=C(CN1C(=O)C2(OCCO2)c2ccccc21)c1ccc(Br)cc1` as the molecule, how does the Potency read?
The Potency was active: 39.8 µM.

`COc1cc([N+](=O)[O-])c(OC)cc1SCc1n[nH]c(=S)n1-c1ccc(C)cc1` was tested. Which Potency did it give?
The Potency was inconclusive: 1.12 µM [inhibitor, full curve, poor fit].

For `COc1ccccc1CNC(=O)N1CCN(S(=O)(=O)c2ccc(C)cc2)CC1`, which “activity, negative = inhibition” value is on record?
The value was inactive: 32.3% [at 102 µM].

With `CC/C(=C\c1oc2cc3ccccc3cc2[n+]1CC)Nc1ccccc1` as the molecule, how does the Potency read?
Its Potency is active: 5.62 µM.

With `Cc1ccc(C2(C)NC(=O)N(CC(=O)NNC(=O)c3ccccc3F)C2=O)cc1` (stereo not drawn) as the molecule, how does the “activity, negative = inhibition” value read?
Its value is inactive: 28.8%.

With `CCN1CCN(C(=O)c2cc(S(=O)(=O)N3CC(C)CC(C)C3)ccc2Cl)CC1` (stereo not drawn) as the molecule, how does the Potency read?
Its Potency is inconclusive: 39.8 µM [inhibitor, partial curve, poor fit].

With `COC(=O)c1ccc(C2Nc3c(C)cccc3-c3cc(C)nn32)cc1` (stereo not drawn) as the molecule, how does the “activity, negative = inhibition” value read?
The value was inactive: 1.2%.

For `COc1ccccc1CNc1nc2c(S(=O)(=O)c3ccc(C)c(C)c3)nnn2c2ccc(Cl)cc12`, which “activity, negative = inhibition” value is on record?
Its value is inactive: 6%.

`N#Cc1c(N)nc2c3c(sc(=N)c2c1N)NC(=O)CC3c1c(F)cccc1Cl` (stereo not drawn) was tested. Which activity, negative = inhibition did it give?
Its activity, negative = inhibition is inactive: -26.7% [at 0.0925 µM].

`Cc1nc2cc(NC(=O)Nc3ccc(N4CCOCC4)cc3)ccc2n1C` was tested. Which Potency did it give?
The Potency was active: 8.91 µM.

`CCCn1nc2cc(C(=O)NCc3ccc4c(c3)OCO4)ccc2c1OCC` was tested. Which Potency did it give?
Its Potency is inconclusive: 89.1 µM [inhibitor, single point].

Which Potency does the source give for `CC(C)n1cnc2c(=S)nc[nH]c21` here?
The Potency was active: 0.794 µM.

How did the Potency turn out when `Brc1ccc(N/N=C(/N=Nc2nn[nH]n2)c2ccccc2)cc1` was run?
Its Potency is active: 11.2 µM.

For `COc1cccc(NC(=O)CCC2CCN(C(=O)c3cncs3)CC2)c1`, which Potency is on record?
The Potency was active: 39.8 µM.

With `COc1ccc(/C=N/N=C2/NC(=O)CC(C(=O)O)S2)cc1` (stereo not drawn) as the molecule, how does the Potency read?
The Potency was inconclusive: 1 µM [inhibitor, partial curve, poor fit].

How did the Potency turn out when `CCCCNC(=S)NNC(=O)c1c(C)nc2ccccn12` was run?
Its Potency is inconclusive: 79.4 µM [inhibitor, partial curve, poor fit].

How did the Potency turn out when `COc1ccc(OCC(=O)NC(=S)NNC(=O)COc2ccc(Br)cc2Cl)cc1` was run?
Its Potency is active: 1.58 µM.

How did the Potency turn out when `Cc1ccc2[nH]c(=O)c3cc(C(=O)N4CCN(C(=O)c5ccco5)CC4)sc3c2c1` was run?
Its Potency is inconclusive: 25.1 µM [inhibitor, partial curve, poor fit].

For `C(=N\NC1=Nc2cccc3cccc1c23)/c1ccccn1`, which “activity, negative = inhibition” value is on record?
Its value is inactive: -46.1% [at 102 µM].

`CCN(CC(=O)NCc1cccs1)c1ccc(S(=O)(=O)N2CCN(C)CC2)cn1` was tested. Which “activity, negative = inhibition” value did it give?
Its value is inactive: -9.29% [at 102 µM].

For `CCC(C)N(C(=O)CSc1nnc(-c2ccco2)n1C)C1CCS(=O)(=O)C1` (stereo not drawn), which activity, negative = inhibition is on record?
Its activity, negative = inhibition is inactive: 11.7% [at 12.7 µM].

How did the Potency turn out when `Cn1nc([N+](=O)[O-])nc1Sc1nnnn1-c1cccc(C(=O)O)c1` was run?
The Potency was inconclusive: 89.1 µM [inhibitor, single point].

`CCOC(=O)C1=C(C)NC(SCC(N)=O)=C(C#N)C1c1ccncc1` (stereo not drawn) was tested. Which Potency did it give?
Its Potency is inconclusive: 89.1 µM [inhibitor, single point].
